# Results as given in the supplement of paper PMC12217912.
# The other results are listed elsewhere or left out. Sequences were assembled here from the parent chain. Inactive controls read about 0.05.
# B1: TEV protease; numbered along this chain (parent)
# chain: MGESLFKGPRDYNPISSSICHLTNESDGHTTSLYGIGFGPFIITNKHLFRRNNGTLVVQSLHGVFKVKDTTTLQQHLVDGRDMIIIRMPKDFPPFPQKLKFREPQREERICLVTTNFQTKSMSSMVSDTSCTFPSGDGIFWKHWIQTKDGQCGSPLVSTRDGFIVGIHSASNFTNTNNYFTSVPKNFMELLTNQEAQQWVSGWRLNADSVLWGGHKVFMVKPEEPFQPVKEATQL
# Variants of: B1
# Experiment: raw area under fraction-flipped curve 0-4 h after induction (AUC4h, not background-subtracted), DNA-recorder readout of cleavage of the substrate (dimensionless); higher = more cleavage of the substrate by the protease variant
# Conditions: temperature: 34 °C; time window: 0-4 h after rhamnose induction
# Procedure: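 In vivo DNA recorder in E. coli TOP10(DE3) ΔrhaA at 34 °C. Each TEVp single-site mutant (parent TEVp 0) is paired with a single-site variant of the 7-mer TEVs (canonical ENLYFQ|S). The substrate sits between flexible linkers in a Bxb1-sfGFP-TEVs-SsrA fusion, so cleavage stabilises Bxb1 and speeds flipping of a recombination array, read by NGS. The value is the raw area under the fraction-flipped curve over 0-4 h after rhamnose induction (AUC4h), with ≥20 reads per time point. It is not background-subtracted; inactive controls average about 0.047.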
# 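Note: Bxb1 expression induced with 0.2% (w/v) L-rhamnose at OD600 near 0.5, cultures sampled hourly, flipped fraction per protease–substrate barcode pair counted by paired-end Illumina sequencing.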
Variant,area with substrate ECLYFQS,area with substrate EELYFQS,area with substrate EGLYFQS,area with substrate EILYFQS,area with substrate EMLYFQS,area with substrate EPLYFQS,area with substrate EQLYFQS,area with substrate ESLYFQS,area with substrate EVLYFQS,area with substrate EDLYFQS,area with substrate EFLYFQS,area with substrate EKLYFQS,area with substrate ELLYFQS,area with substrate EWLYFQS,area with substrate EHLYFQS,area with substrate ERLYFQS,area with substrate ETLYFQS,area with substrate EYLYFQS
W212P,0.0731,0.0642,0.0633,0.0544,0.0487,0.0525,0.044,0.0594,0.0707,–,–,–,–,–,–,–,–,–
A196S,0.112,0.125,0.0697,0.0849,0.119,0.102,0.115,0.102,0.0866,0.103,0.0772,0.114,0.0842,–,–,–,–,–
Q198H,0.0706,0.11,–,–,–,–,0.11,0.114,0.0914,0.0967,–,–,–,0.0551,–,–,–,–
R204S,0.106,0.066,0.116,0.0974,0.0726,0.122,0.12,0.111,0.0914,0.12,0.127,0.116,0.0825,0.0898,0.136,0.0965,0.132,–
N186G,0.13,–,–,–,–,0.104,–,0.108,–,0.168,–,–,–,–,–,–,–,0.156
I167C,0.0837,0.098,0.0647,0.0808,0.0954,0.101,–,0.0874,–,0.135,–,0.0744,0.0799,0.0766,–,–,0.0779,0.0897
S182P,0.11,–,0.139,–,–,–,0.121,0.132,–,0.112,–,–,0.0795,–,0.138,0.132,–,–
S182Y,0.041,0.0629,–,0.0535,0.048,0.0696,0.052,0.0583,–,–,–,0.0619,–,0.073,0.0581,–,–,–
E189F,0.089,0.121,–,0.11,0.119,0.139,–,0.0969,0.105,–,0.0818,0.11,0.0823,0.077,0.1,0.102,–,–
I145L,0.0982,–,–,–,–,–,–,0.0758,–,0.106,–,–,–,–,–,–,0.119,0.08
I145M,0.0812,–,–,0.0788,0.0802,–,–,0.0726,0.0716,–,0.0789,0.0893,0.0956,–,0.0686,0.0719,0.0883,–
Q197A,0.124,–,–,–,0.1,–,0.11,–,0.0707,0.115,0.0881,0.0694,–,0.0581,0.11,0.0671,–,–
T147A,0.0725,–,–,0.086,0.0919,–,0.068,0.0909,0.0744,0.109,–,–,0.0648,–,–,0.0751,0.0964,0.137
T174N,0.104,0.108,–,0.107,–,0.119,0.149,0.101,0.0996,0.123,0.0623,–,0.113,–,0.158,–,–,–
H143F,0.0928,–,0.0782,0.0886,–,0.119,0.135,0.111,0.094,0.137,–,–,–,–,0.116,0.106,–,–
N178K,0.0942,–,0.0855,0.113,–,0.108,–,0.0957,0.103,0.135,–,–,–,0.125,0.0876,0.109,–,–
N178E,0.0694,–,–,0.0501,0.064,–,0.0672,0.0824,0.0331,–,0.0631,0.0868,0.0556,0.0814,0.0475,–,–,–

Variant,area with substrate ECLYFQS,area with substrate EELYFQS,area with substrate EGLYFQS,area with substrate EILYFQS,area with substrate EMLYFQS,area with substrate EPLYFQS,area with substrate EQLYFQS,area with substrate ESLYFQS,area with substrate EVLYFQS,area with substrate EDLYFQS,area with substrate EFLYFQS,area with substrate EKLYFQS,area with substrate ELLYFQS,area with substrate EWLYFQS,area with substrate EHLYFQS,area with substrate ERLYFQS,area with substrate ETLYFQS,area with substrate EYLYFQS
Q146H,0.0991,–,0.079,0.108,0.153,0.142,0.128,0.111,0.0985,0.173,–,–,–,–,0.0911,0.0993,–,–
Q146A,0.093,–,–,0.112,0.0852,0.123,0.102,0.114,–,0.135,–,0.113,–,0.0987,0.136,–,0.138,0.103
Q146W,0.146,–,0.114,–,0.189,0.175,0.165,0.181,0.132,0.181,0.167,0.159,–,0.0766,–,0.118,0.176,0.152
Q146S,0.0935,0.124,–,–,–,–,–,0.0958,–,–,–,–,–,0.112,–,0.106,–,–
K148V,0.0747,0.107,0.117,0.0914,0.128,0.0668,0.134,0.107,0.108,0.112,–,0.195,–,–,0.105,0.105,–,0.0934
V217I,0.0887,0.121,0.0899,0.0893,0.122,0.105,–,0.107,0.104,0.124,–,–,–,–,0.0799,0.112,–,0.161
F133I,0.128,0.163,0.103,0.0862,–,0.133,–,–,–,–,–,–,–,–,–,–,–,–
Y179C,0.054,0.0616,–,–,0.057,–,–,0.0581,0.0566,–,–,0.0521,–,0.0645,0.0547,0.0582,–,–
F180K,0.0595,0.0576,0.0229,0.0538,–,0.0507,0.0516,–,–,0.0661,–,0.057,–,0.107,0.0622,0.0629,–,0.129
F180M,0.0847,–,0.13,0.0958,–,0.132,0.121,–,–,0.123,–,0.11,0.0964,0.0889,–,0.101,–,–
C152N,0.068,0.0554,0.063,–,0.0608,0.064,0.075,0.0468,0.051,–,–,–,0.0591,–,0.099,0.0617,–,–
K142A,0.114,0.0807,–,0.0926,–,–,0.104,0.128,–,–,–,0.106,–,0.093,–,0.114,–,0.077
L211Y,0.132,–,0.0983,0.107,–,0.113,–,0.106,–,0.129,–,0.136,–,–,0.108,0.106,0.111,–
T159S,0.119,0.115,–,0.0894,–,0.097,–,0.0857,–,–,–,–,–,0.0842,0.0965,0.0862,0.118,0.108
T159D,0.0986,0.111,–,0.068,0.112,–,–,0.127,0.0836,–,–,–,0.0882,–,–,0.112,0.0881,–
R160L,0.079,–,0.0887,–,0.092,–,–,–,–,–,0.104,–,–,–,–,–,–,0.0585
